The supplement of paper PMC10681739
Whole data set: some 4,100 sequences, median “arbitrary fluorescence units” near 780, cut for the highest 2% near 22,000. The list shows a part of the results.

The sequences below were run against T1, ETS1 (UniProt P14921) (assay: ETS1 binding intensity (PBM fluorescence), ETS1 alone (arbitrary fluorescence units); higher = stronger binding). Settings: ETS1 concentration 1 nM; RUNX1 concentration 0 nM.
T1 sequence: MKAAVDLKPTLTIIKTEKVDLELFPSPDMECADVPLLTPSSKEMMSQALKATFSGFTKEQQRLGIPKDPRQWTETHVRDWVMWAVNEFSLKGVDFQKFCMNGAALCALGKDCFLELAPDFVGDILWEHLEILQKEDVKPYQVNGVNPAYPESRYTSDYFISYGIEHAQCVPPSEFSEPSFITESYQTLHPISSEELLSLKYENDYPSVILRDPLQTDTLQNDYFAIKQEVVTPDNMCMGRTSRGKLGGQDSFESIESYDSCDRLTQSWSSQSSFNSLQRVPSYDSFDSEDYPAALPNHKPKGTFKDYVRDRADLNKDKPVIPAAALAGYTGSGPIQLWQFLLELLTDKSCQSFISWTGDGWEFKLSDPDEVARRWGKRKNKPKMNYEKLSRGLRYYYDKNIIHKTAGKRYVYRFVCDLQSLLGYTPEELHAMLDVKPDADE
Summary of the method: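 Double-stranded Agilent 4 × 180k arrays held 36-bp genomic probes whose RUNX1 partner site was mutated, and these were incubated with 1 nM full-length recombinant human ETS1 in the absence of RUNX1 under standard PBM protocols. Bound protein was labelled with anti-ETS1 antibody (Cell Signaling Technology 14069) plus an Alexa488-conjugated secondary and read on a GenePix 4400A, with four spots printed per sequence. Binding level is reported as raw spot fluorescence intensity summarised over replicate spots.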
For GACTCTTGGGGTTGCACCGCGCTTCCTGCCAGCTTG, the ETS1 binding intensity was 1410. TAGAAAAGGAAGCAGGGTAGGTGTCGTATCTGGGTC showed an ETS1 binding intensity of 565. CTGGGGTAGGGCAGCTCCTCAGAAGCCGGAAATCTG showed an ETS1 binding intensity of 594. With CCTCTGTGATTTTTAAGAGTAACACACAGGAAGGAG the ETS1 binding intensity was 452. Work on GGTCTCTGCTTCCGGTCCTTGGGGTAGCACCTCTGT yielded an ETS1 binding intensity of 32000. ACGAGAGTCTAGAGGAAACCAACCCTCAACTCACTG was tested, and the ETS1 binding intensity was 449. GGACTCTGGCAGGAAGCTGTTTGTAGTTGTCACACC gave an ETS1 binding intensity of 1270. GGCTTTTCCGGGATCCCTTTCGCCTCATCACTGCAG was tested, and the ETS1 binding intensity was 5710. With CTTTGCAGGAAGCTGGGGTTCACCTACAGCCTTGTT the ETS1 binding intensity was 1000. With TCCCCCGTTTGGTGTTCAGGCCCTCTTCCTGGAGCT the ETS1 binding intensity was 350. Sequence CTCCCGTTTCCGCCAGCCACCTGAACTACGGCCCAG has an ETS1 binding intensity of 6570. For AGCAAAAACGCCCACCACCGGAAAGACGCCTGAAGA, the ETS1 binding intensity was 1530. Work on CACTTCCTCTGTGACTGCAGGTTTCCAACTACAAGC yielded an ETS1 binding intensity of 18700. Sequence GCACGCGCCGTAGGCCGACCCCCGGAACCCTCCGGG has an ETS1 binding intensity of 406. Work on CAGTTCCTTCCTCCGGTTCCTGCACTTGGCCCCAGC yielded an ETS1 binding intensity of 2650. CTTCACGGTGACGGGGAACTACATTTCCCAGAAGGC was tested, and the ETS1 binding intensity was 365. TTGAATTTATCACGCGGAAAGCAGCTTTTCCTGTGC gave an ETS1 binding intensity of 480. Work on CCAGCGTTTCCGCACCCTCTCCGATTAGAGGTCCCA yielded an ETS1 binding intensity of 4100. Sequence AATCTGAAACAGGAAATAAGTCTGTCGTTGTGTGTT has an ETS1 binding intensity of 4460. With TAGCAGGAAGCCGATTCGCCCTATATGCAAGCACTT the ETS1 binding intensity was 763. CTTACGGCCTCGCGGCATGGGCAGTATCCGCCGCCA was tested, and the ETS1 binding intensity was 403. GAGGAAAAAGGAAACAGAAACTCCGAAACTTGCGCC gave an ETS1 binding intensity of 487. Sequence GACAACCTACCCCAGCCTTCCTTCCGGGCGCTCAGG has an ETS1 binding intensity of 1160. CCTCTGCCCAACCCCAATTTTCCCTTCCTCCGCCTT gave an ETS1 binding intensity of 543. For CGGGAATTGGGGTCTCCGCCGGACGCGAGTTGTGAG, the ETS1 binding intensity was 382. In the case of TCCTGGGGCTGAGTGGCAGCTTCCATCCGGTGGGTT, the ETS1 binding intensity is reported as 1120. Sequence GCCGTTTCCCGGTTCGCTCGGCCGAGGTCGCTATGG has an ETS1 binding intensity of 4670. In the case of GGAGCGCGCCGGAAACGCGCGGATTCGGCCCGGGAG, the ETS1 binding intensity is reported as 6990. With TAGATGCAGAGAACAACAAACATTTCCGTACGGCTA the ETS1 binding intensity was 563. GGCGGGGCGCGGGCGCAGCTCCGTTTCCGGTGGCTC showed an ETS1 binding intensity of 7200. GAGTGCCGTTTCCCCCGCTCACCTCGGGCTAGGGAG was tested, and the ETS1 binding intensity was 845. With GGAACAGGAAAAGCCTCCGGCAGCCCCTGCAGGCGG the ETS1 binding intensity was 1810. In the case of TCTTTTTATTTCCTGTGCAGTCTCGCCTACAGCACT, the ETS1 binding intensity is reported as 14100. CACTCCGCCCCCGCTGTCCCCGCGGCTTCCGCCACG showed an ETS1 binding intensity of 617. AGAGCGCGCCTTCCGTGACGCCGTAAGAGCGCGCCT was tested, and the ETS1 binding intensity was 464. ATGGCGGAGCGGAAGTCCCAGCTACAACGCGAAAAG was tested, and the ETS1 binding intensity was 8820. With AAGTCTGCATTTGGGAGAGGAACATCCTGTTTGCCT the ETS1 binding intensity was 3280. In the case of CCTCTGGTGAGGCCAGCAGAGGCTCAGGAAGGGAGC, the ETS1 binding intensity is reported as 340. In the case of AACTCGTGGGGTTTTCTTCTGATCTTCCTCCCCGCT, the ETS1 binding intensity is reported as 374. Work on GTCACAGAGGGAGGAAGGCCGAACCTCGGGAGCCTA yielded an ETS1 binding intensity of 465. TCGGGCTGGGGTCCTACGGCACTTCCCGTGGGAGGA gave an ETS1 binding intensity of 618. In the case of GTTGCCCCACTTCCTGCCAGTGCTTTTTGGTTGGCC, the ETS1 binding intensity is reported as 16300. For CTGGCCTCAGGAAGGAGGCAGTTTTGGGGCCCCAGG, the ETS1 binding intensity was 351. CACGGGGCGTTCAACCCCAGGAGGAAATATCGCTTC gave an ETS1 binding intensity of 366. Sequence TTACAGGGGCCGGAAGTGGCCTGCAGGCGGAGAAGT has an ETS1 binding intensity of 19600. In the case of CAAGAGCCGGAAGTCCCTTGTGCCGTAGTCCTTCCC, the ETS1 binding intensity is reported as 9220. Sequence GTGCCGAATCCACCTCTTTCTTTCCTGCCTTCCTCC has an ETS1 binding intensity of 516. GCTTTTCTGTGATTTTTCTCACACGGGAAGTGAGAG was tested, and the ETS1 binding intensity was 522. For AAGCAGCCGCCGAGGGGAGACGCCGGAAGTCCCGCC, the ETS1 binding intensity was 2530. With GGGGGCGGAAGTTTCGGTGCATTGTAGGTTCTCCTG the ETS1 binding intensity was 2590. In the case of CATAGACCGGATGCCTCGTCAACGACAGAAACCAAT, the ETS1 binding intensity is reported as 8650. TGACTAGAGAGCACACACATATCCTGCATTCTCAGA was tested, and the ETS1 binding intensity was 846. ACTTACTTCCCGACGTCACAGCCTCCGACACCTCAG was tested, and the ETS1 binding intensity was 1520. In the case of CCGCGAACCCCAATGTATTTCCATCACAGGAAGAGA, the ETS1 binding intensity is reported as 512. With CGGAGGCCGCTTGGGGGCTCCCGGAAGCGGCGCCCT the ETS1 binding intensity was 718. In the case of CCGGAGGTTTCGGGAGCTGAGGGAGGAAACAGGGAC, the ETS1 binding intensity is reported as 438. In the case of ACCAGCAACGGAAATCAGATCTCTTGTAGTTATTAT, the ETS1 binding intensity is reported as 2290. AAGAGCTCAGCACATACCCACTTCCTCCCACAGTGC gave an ETS1 binding intensity of 1930. In the case of GGCCGGACGCCATCTTGCTGGTTTACGGCCGGTCTT, the ETS1 binding intensity is reported as 1010. AGTAACCAGCAGGCTGTGCCGGCAGGATGTTGTCTT gave an ETS1 binding intensity of 469. Work on CACCTCCCACTCAGCACAGAGTTTCCTGGTGTTTTA yielded an ETS1 binding intensity of 768. GAGTGGCTGTTGTCTCGGGCGGATGGGGAGAGGGGA showed an ETS1 binding intensity of 598. GGCACTGGCTTTCCGGGGCCTCTCTGGGCTGGACAG showed an ETS1 binding intensity of 659. CGGCCTCTTCCGGTCACCTGGCCCGTCGCTGTCCCG was tested, and the ETS1 binding intensity was 17300. In the case of CAGCCTGTAAAGCTCAGAACATCCCTGGAGCCCTTT, the ETS1 binding intensity is reported as 611. TCCACAGCCGGTTCCGGCCGGTTCCCAGAAGCCCCT gave an ETS1 binding intensity of 2340. With AGGGTGTTCTAAGCACGAGCTCAGGATGCTGTCTGT the ETS1 binding intensity was 362. In the case of CCTGGCGTTCCTACGGGCCGCGGATGGCGGTGGATT, the ETS1 binding intensity is reported as 328. Sequence AGCGTCTATTTCCTCCGACTGGGGCGCGGCTGATAC has an ETS1 binding intensity of 2800. TCTCTTCCTGAACAGGCAATTGCCTGGGGTCCAACA showed an ETS1 binding intensity of 3020. CTCCTTCCTGATCGGGCAGGAACTAATCACAGGAGG gave an ETS1 binding intensity of 2100. TGGCGGCGGATACTGCCCATGCCGCGAGGCCGTAAG was tested, and the ETS1 binding intensity was 565. CAGTTCTCAGGCTTCCTCCCTTCACCAGAGCTGGCT was tested, and the ETS1 binding intensity was 922. With GCCTGAGCGGAAACCCGGCGCCACCTCAAGATGGCA the ETS1 binding intensity was 2650. In the case of ACTGTTGTCAGACCAAAGGAAGAACTTCCCAACCTC, the ETS1 binding intensity is reported as 489. Sequence TCCCCGGCAGCTTCCTCGCCCCGACCCCAGTGTTCC has an ETS1 binding intensity of 560. CCGCCACGGCCGCCGCCATCTCCACCGGAAGAATGG gave an ETS1 binding intensity of 639. Work on GGGAGGTCACATCCTGCCCGCGCTCTCAGAAAAGCT yielded an ETS1 binding intensity of 10100. Sequence CCCCGCGGAACTCTGGCACAGTCAGCTGACAGCAGA has an ETS1 binding intensity of 398. With CTGTCTGCTTCCCGTGGCCAGCCCTGATCGCGGCCC the ETS1 binding intensity was 953.
